# In the RNAGym collection of RNA variant scans (doi:10.1093/nar/gkz1192):
# The source gives no read counts; variants with many changes may rest on few reads.
# B1: CPEB3 Ribozyme (parent)
# chain: UAACAGGGGGCCACAGCAGAAGCGUUCACGUCGCAGCCCCUGUCAGAUUCUGGUGAAUCUGCGAAUUCUGCUGUAUAUCUC
# Variants of: B1
# Test: self-cleavage, relative activity (ratio to wild type); higher = more cleavage; in vitro, sequencing
# Method in brief: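 For each CPEB3 ribozyme variant, relative activity is its cleaved/total read fraction divided by the unmutated ribozyme's. Barcoded error-prone PCR libraries were transcribed by T7 RNA polymerase (5 hours, 37°C) and held in DNase I for 15 min before an EDTA stop, with cleavage occurring throughout. Template-switching reverse transcription and Illumina sequencing were used to read the RNAs. A 5-read minimum applied, and results are the mean of three batches.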
row,Variant,self-cleavage
1,A28U U43C A65C,0.13
2,G30U C40U U72A,0.11
3,A28U U31A U48A U67C,0.43
4,A28U U48C A64U,0.19
5,G30A U49C A65G,0.13
6,A28U C37G U43C A45G C79U,0.17
7,C29G C34A A35G,0.11
8,C29U A45U U60C A65G U67C U72C,0.11
9,G30C U51A U69A,0.26
10,G30A U54A A56G U78C,0.07
11,G30A U41C U49C U78C,0.07
12,A28U A47U U48C A56G U76A,0.14
13,C29U A35U A64U,0.21
14,G30A U31A C40A U41C,0.43
15,A28U C32A A35G U67A U78C,0.09
16,G30U A65G U72C,0.12
17,C29U U31A U67A,0.11
18,G30A A35U U67C U69C,0.06
19,G30A U43C G52U A65G C79U,0.08
20,U31A A45G U51C A64G,0.16
21,A28U A47G G61C A77U U80C,0.24
22,C29U U41A U48C U58C G61A,0.08
23,U31A A35G U69C,0.76
24,A28U U31C A45G U48C,0.07

row,Variant,self-cleavage
1,A28U G52A U58G U60A A65G,0.15
2,G30U A35U G52U U69A,0.07
3,A28U G42A U51C,0.14
4,G30A C32A A45U,0.12
5,A28U C38A U41A C59U,0.15
6,C29U G63U U80C,0.69
7,C29U C40A U54C A65C,0.13
8,U31A A45G U67C,0.08
9,A28U G30C U72C U78C,0.07
10,A28U A45U U51C,0.12
11,A28U U72C U80A,1.07
12,G30C U43C A56G U69C U72G,0.05
13,G30A U51G A64U A65G,0.22
14,C29U U43C A56U,0.17
15,A28U C39G U51A,0.11
16,C29A G52U A64G,0.16
17,G30A U31C A75U U78C,0.21
18,C29A U43C A45U A57G,0.05
19,C29U A35G U41C G53A G73A,1.25
20,A28U U54C U72C,0.84
21,G30U C34U A35G A47G,0.07
22,A28U G33A A47G U51C,0.11
23,U31A A56U A64U,0.11
24,A28U A64G U76C,0.82

row,Variant,self-cleavage
1,A28U U54A U72C,0.42
2,G30U U41C C50U U78C,0.17
3,A28U U41C U51A U78C,0.67
4,G30A A45U A64G,0.19
5,A28U A45U U67G U72C U78A C79U,0.15
6,U31A A47G A57G,0.4
7,A28U A57G C68A,0.23
8,A28U C39A A56G,0.19
9,A28U U43A U60A U69A U72A,0.33
10,G30U A45G A64G,0.17
11,A28U G30U U31C U41A U72C A77G,0.11
12,G30A U76C U80A,0.19
13,A28U G42A U69C,0.5
14,C29A C39A U60A,0.36
15,U31A A35G A64C U72G,0.23
16,A28U U48C U51C U54A U58C,0.19
17,A28U U41A U49C,0.09
18,G30A U69C U72G,0.06
19,A28U U41C G61U U67C A77G,0.09
20,G30A A77U U80A,0.16
21,C29U A64G C81A,0.18
22,C29U U31C U54A U60A,0.1
23,A28U A56G U72G,0.46
24,G30A G52A U54C U67C U69C U80C,0.09

row,Variant,self-cleavage
1,A28U A47U U54A,0.13
2,C29G U54C U80A,0.05
3,G30U A64G U72G,0.12
4,G30A C38A U41A A56U,0.12
5,A28U U31A A45G,0.34
6,A28U U60C U72G A75G,0.33
7,C29U G63A A65G U69A,0.17
8,G30A C62A U69C,0.16
9,A28U U51C U58A C68A U72G A77G,0.21
10,G30A U41C U54C U58A U69A,0.11
11,C29G C32U A35C U49A U80C,0.24
12,C29U U31C U41A U48A A56G,0.17
13,A28U U51G U54C,0.61
14,A28U U41C U49C A64G,0.13
15,A28U G30A U48A,0.19
16,C29A A56U U72C,0.55
17,C29A U41C U66A,0.47
18,U31A A35C U72A,0.45
19,C29U U41A G46U,0.12
20,C29G U48C U69C U72A U80A,0.04
21,C29U U54A U78C C81A,0.56
22,G30A A45C U67C,0.1
23,C29U A57G U67C,0.15
24,C29A U31C C40U,0.14

row,Variant,self-cleavage
1,G30A C40U U49C U67C,0.09
2,C29G U41G U69C,0.08
3,A28U U31C A45G,0.25
4,G30A A56C U74A,0.09
5,A28U A56U U69A,0.15
6,C29A U60C U72C,0.08
7,G30U U51C U76A,0.21
8,A28U U31C A56U,0.33
9,G30A A45U U48G A75G,0
10,G30A A45G U54G U66C,0.07
11,A28U A47G U69G,0.5
12,A28U U51A A57G U66C U72C,0.14
13,G30A A65U A77G,0.14
14,C29U A65G U67A U78C,0.11
15,G30U A45G A75G,0.04
16,G30U A57U C59A,0.05
17,A28U A64G U74C,0.91
18,A28U U43C G52U,0.19
19,G30U U76C A77G,0.11
20,A28U U41C A56U U80A,0.63
21,G30A C34A U41C,0.26
22,G30C U31C U58C U80C,0.2
23,A28U U69A A75G,0.14
24,A28U A47G U48C U69C,0.11

row,Variant,self-cleavage
1,A28U U51A U60C,0.32
2,A28U U66C U76A,0.33
3,C29U A35U U41C,0.23
4,G30U A35U C39G U43C G53C U78C,0.05
5,A28U U31C A45G U78A,0.34
6,G30C U48C A57G,0.13
7,C29U C32A U43C A45G U76G,0.05
8,A28U C29U U43A A64G U76G,0.33
9,U31A A35U U58C U60C U69A,0.07
10,A28U A47U U72C,0.29
11,A28U U31C U54A A56G U72C U78A,0.35
12,G30C U54A U67A,0.18
13,G30A A35G U72A,0.11
14,C29A U72A U78A,0.27
15,U31A A47G U69A,0.1
16,C29U U48C G53A U80A,0.44
17,C29U U58C U67A A75U,0.09
18,A28U U43C A47U,0.38
19,C29U U66C U69C,0.11
20,U31A A57G A65U U78A U80A,0.11
21,C29G U31A C40U U41A A47G A56G U80A,0.16
22,G30A U31C C38G C59A,0.12
23,A28U A64G U67C U72G,0.36
24,C29U G33A U49C,0.05

row,Variant,self-cleavage
1,A28U U31C U49A,0.23
2,A28U C29U U51A U67C,0.13
3,C29U U43C C44U,0.23
4,C29U A65G U67C U69C,0.13
5,C29A U41C A47U,0.08
6,A28U C40U A64G U69C,0.36
7,A28U C40G A47G,0.28
8,A28U C29U A45G A64G,0.27
9,C29A A45U A64U U67C,0.16
10,G30A G36A U41C U51C U72A,0.1
11,U31A A35U U54C A75U,0.31
12,G30A U72C U74C,0.1
13,U31A A56U U58A U72G U78C,0.1
14,A28U C29U U49C U72G,0.09
15,C29G U31A C40U U41A A47G,0.23
16,C29U U51C U78C U80C,0.23
17,A28U C29A U41A U72A,0.19
18,G30U C38A U60C A65U,0.08
19,A28U A47G C71A G73A U76A,0.24
20,A28U C34U C40U U48C,0.12
21,A28U U67A U69C U78C,0.12
22,G30A A64C A77U,0.14
23,A28U A64U U72C,0.37
